The values below come from patent US20240271082A1 (FZATA, published 2024).

The target of one experiment is T1, human IL-17A (human, UniProt Q16552 24-155).
T1 construct: also called hIL-17A; hIL-17
In words: specific binding activity of yeast supernatant (FIG. 149).

Experiment [1] deals with T2, human TNF-α (human, UniProt P01375 partial chain).
T2 construct: also called hTNF-α; hTNFα
Described as above.

Experiment [2] addresses T2, human TNF-α. The experiment is described as follows: cell-based or functional assay.
The target of experiment [3] is T2, human TNF-α. The experiment is described as follows: specific binding EC50 compared with Humira.
T2 sequence (P01375 77-233 limits assumed): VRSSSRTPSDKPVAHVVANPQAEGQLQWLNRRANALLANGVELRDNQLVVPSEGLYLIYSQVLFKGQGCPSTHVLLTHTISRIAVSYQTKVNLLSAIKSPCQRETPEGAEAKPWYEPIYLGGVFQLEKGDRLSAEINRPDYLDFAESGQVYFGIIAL
Experiment [4] deals with T2, human TNF-α. In words: specific binding EC50; method not given.

human IL-17A, sequence (Q16552 24-155 limits assumed): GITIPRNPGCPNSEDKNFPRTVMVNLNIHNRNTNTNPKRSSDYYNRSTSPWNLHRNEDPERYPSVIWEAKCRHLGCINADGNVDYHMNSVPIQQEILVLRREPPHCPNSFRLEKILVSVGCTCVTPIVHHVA

B1: FZ008_ahTNF-α-ahIL17A-Fc (VHH1-VHH2-Fc bi-specific antibody) (bispecific antibody, human IgG1)
chain: EVQLLESGGGLVQPGGSLRLSCAASGRTFSTYAMGWFRQAPGKEREFVATVDNDGFTMHADSVKGRFTISRDNSKNTLYLQMNSLRAEDTAVYYCAAGQYSKFVESYAYWGQGTLVTVSSGQAGQGGGGSGGGGSGGGGSLQQVQLVQSGGGLVQAGGSLRLSCAASGGTFATSPMGWLRQAPGKGTEFVAAISPSGGDRIYADSVKGRFTISRDNAGYFIYLQMNSLKPEDTAVYYCAVRRRFDGTSYYTGDYDSWGQGTLVTVSS[human IgG1 Fc not written out]
notes: Tested as yeast culture supernatant; also called VHH-VHH-Fc; FIC5
Regarding B1, the binding result with human IL-17A and with human TNF-α [1] was “binds” each time.

B2: Anti-human TNF-α-VHH-Fc, A3 (Anti-hTNF-α-Fc) (Fc fusion)
chain: EVQLLESGGGLVQPGGSLRLSCAASGRTFSTYAMGWFRQAPGKEREFVATVDNDGFTMHADSVKGRFTISRDNSKNTLYLQMNSLRAEDTAVYYCAAGQYSKFVESYAYWGQGTLVTVSS[human IgG1 Fc not written out]
notes: The tie is indirect
Broadly, the EC50 is the concentration needed to bring the measured effect to its halfway point. Read a low EC50 as greater potency. Take B2: the “IC50, neutralizing activity” value with human TNF-α [2] came out at 0.007 nM. In addition, in the experiment with human TNF-α [3], the “fold lower EC50 than Humira” value was approximately 3 fold. This molecule also yielded a concentration for a half-maximal effect (EC50) with human TNF-α [4] of 0.141 nM.
